Screen size: about 45,000 compounds; about 65 (0.1%) were called active. The call rests on the fitted dose curve; in most records, active means well fitted activation curve with a large enough effect; inconclusive means small, poorly fitted or top-dose-only effect; inactive means no such curve, though single readings can be large or run the other way. The list shows a part of the results.
Target: Galactocerebrosidase (Homo sapiens) (UniProt P54803)
Assay: A Novel Cell-Based Assay to Identify Small Molecules for B -Galactocerebrosidase; further: 0% is about no effect; nearly all actives have a fitted effect of over 65% in size
Details: 145M-Twi-hGALC-G270D cells, HMU-beta-Gal fluorescence, 48 h; series mostly up to 57.5 µM; activation: at the top concentration
Procedure, shortened: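 qHTS, 1536-well; 145M-Twi-hGALC-G270D cells (WT line also made) in DMEM/F12 + 10% FBS; compound incubation on live cells; HMU-β-gal 0.1 mM final, pH 5.2, NaTC; carbonate stop; fluorescence increase = enhanced residual activity.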

UniProt P54803, sequence (P54803 whole entry, looked up): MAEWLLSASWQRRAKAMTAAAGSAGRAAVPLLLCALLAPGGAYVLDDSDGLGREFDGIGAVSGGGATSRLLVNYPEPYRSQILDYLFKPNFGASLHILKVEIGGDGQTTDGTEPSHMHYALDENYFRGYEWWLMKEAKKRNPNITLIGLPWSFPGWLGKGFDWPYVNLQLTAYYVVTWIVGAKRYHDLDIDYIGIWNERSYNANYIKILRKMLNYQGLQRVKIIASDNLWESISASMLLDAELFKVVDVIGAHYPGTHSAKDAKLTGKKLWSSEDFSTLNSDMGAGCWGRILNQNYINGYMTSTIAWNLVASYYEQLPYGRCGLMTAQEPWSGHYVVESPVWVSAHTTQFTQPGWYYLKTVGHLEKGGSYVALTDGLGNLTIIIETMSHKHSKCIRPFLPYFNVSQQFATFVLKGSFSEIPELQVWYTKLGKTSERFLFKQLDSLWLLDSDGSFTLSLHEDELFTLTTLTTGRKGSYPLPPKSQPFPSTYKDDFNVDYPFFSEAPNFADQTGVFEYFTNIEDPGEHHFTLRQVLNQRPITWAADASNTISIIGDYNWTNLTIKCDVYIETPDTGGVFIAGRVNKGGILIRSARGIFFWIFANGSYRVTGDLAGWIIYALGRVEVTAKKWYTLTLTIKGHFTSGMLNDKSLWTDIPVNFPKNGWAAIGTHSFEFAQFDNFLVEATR

activation, inactive:
COc1ccc(-c2noc(-c3ccc(N4CCCC4)c([N+](=O)[O-])c3)n2)cc1OC -11.1%
CCc1ccc(-n2nc(C)c3c(C(=O)N4CCN(c5ccccc5)CC4)cc(C)nc32)cc1 -11.8%
CCC(=O)O[C@]1(C(=O)CCl)[C@@H](C)C[C@H]2[C@@H]3CCC4=CC(=O)C=C[C@]4(C)[C@@]3(F)[C@@H](O)C[C@@]21C -16.5%
CCC(=O)N1CCCc2cc(S(=O)(=O)N3CCC(C(=O)NCc4ccc(F)cc4)CC3)ccc21 -12.8%
COc1ccc(C)cc1NC(=O)c1cc2c(=O)n3cccc(C)c3nc2s1 -1.98%
Cc1cccc(C)c1-n1ncc(C(=O)O)c1C1CCN(C(=O)OC(C)(C)C)CC1 -8.63%
Cc1nn2c(C)c(C(=O)NC(C)c3ccccc3)cnc2c1-c1ccc(F)cc1 (centres undefined) -3.8%
CCOc1ccc(NC(=O)Cn2cnc3sc(C)c(S(=O)(=O)N4CCN(c5ccccc5OC)CC4)c3c2=O)cc1 -8.19%
COc1ccc(NC(=O)c2ccco2)cc1NC(=O)C(C)(C)Oc1ccc(Cl)cc1 -9.48%
COc1ccc(OC)c(C2CC(=O)Oc3c2c(=O)n(C)c2ccccc32)c1 (centres undefined) 8.25%
O=C(NCC(c1cccs1)S(=O)(=O)c1ccccc1)c1ccc(C(F)(F)F)cc1 (centres undefined) -6.84%
O=C(Nc1ccc(F)cc1)c1ccc2c(=O)n3c(nc2c1)CCCCC3 5.66%
Cc1cccc(N(CC(=O)Nc2ccccc2C(F)(F)F)S(=O)(=O)c2ccccc2)c1C 4.21%
COc1ccc(Cl)cc1NC(=O)c1cn(C2CCCC2)c(=O)c2c1c1ccccc1n2C -3.92%
CN(C)CCNC(=O)Cn1ccc2cc(S(=O)(=O)N3CCCCCC3)ccc21 7.78%
Cc1cccc(Cn2c(-c3cccc(Br)c3)nc3ccccc32)c1 -11%
COc1ccccc1C(=O)NC1(C(F)(F)F)C(=O)Nc2c1c(=O)[nH]c(=O)n2-c1ccc(F)cc1 (centres undefined) 0.964%
COc1ccc(CNC(=O)CSc2ncc3c(n2)-c2ccc(Cl)cc2N(Cc2ccccc2)S3(=O)=O)cc1 2.49%
Cc1cc(Cl)ccc1OCC(=O)N(Cc1ccco1)Cc1ccccc1F -7.29%
COCCCNC(=O)CSc1nc2c(sc3ccccc32)c(=O)n1CCc1ccc(OC)c(OC)c1 -5.54%
O=C(Cc1ccccc1)Nc1sc2c(c1C(=O)Nc1cccc(Cl)c1)CCCCC2 -12.5%
CCc1nn2c(=O)cc(COC(=O)Cc3ccccc3)nc2s1 -13.8%
CC(=O)c1ccc(NC(=O)C2CCN(c3nnc(C)c4c(C)n(-c5ccccc5)nc34)CC2)cc1 -14.9%
CC(C)(C)C1CCc2c(sc(NC(=O)c3cccc(Cl)c3)c2C(=O)NCc2ccco2)C1 (centres undefined) -4.84%
CC(C)OCCCn1c(=O)c2ccccc2n2c(-c3ccccc3)nnc12 -22.6%
Cc1ccc(-c2cc(C(=O)N3CCN(S(=O)(=O)c4ccc(Br)cc4)CC3)[nH]n2)c(C)c1 5.83%
CC(C)CCOc1ccc(Cn2c(=O)oc3ccccc32)cc1 -11.8%
Cc1ccc(S(=O)(=O)c2cn(Cc3ccccc3)c3cc(N4CCCCC4)c(F)cc3c2=O)cc1 -12.1%
COc1cc(OC)c(NC(=O)CCS(=O)(=O)c2ccc3c(c2)oc(=O)n3C)cc1Cl -21.5%
O=C(NCc1ccco1)c1ccc(Cn2c(SCc3ccccc3)nc3cccnc32)cc1 -7.25%
COc1ccc(NC(=O)CSC2=Nc3ccccc3C3=NC(CC(=O)NCCc4ccccc4)C(=O)N23)cc1 (centres undefined) -7.89%
COc1ccc(NCc2cccn2-c2nnc(N3CCCCCC3)s2)cc1 -22.1%
CC1=C(C(=O)Nc2ccccc2C)C(c2cccs2)n2nc(SCc3ccccc3)nc2N1 (centres undefined) -3.08%
CCc1ccc(S(=O)(=O)NCc2ccc3c(c2)CCN3C(=O)c2ccc(C)cc2)cc1 2.85%
CN(Cc1ccccc1)C(=O)CSc1nnc(-c2cccc(Cl)c2)o1 -13.4%
CCOC(=O)c1c(C)sc(-c2c(-c3ccccc3)[nH]c3[nH]c(=O)[nH]c(=O)c23)c1O 2.39%
CCc1ccc(CNC(=O)C2COc3ccc(OC)cc3C2)cc1 (centres undefined) -1.34%
COc1ccc(-c2noc(-c3ccc(N4CCOCC4)c([N+](=O)[O-])c3)n2)cc1 -4.45%
CN(C(=O)CC(=O)Nc1ccc2nc3n(c(=O)c2c1)CCCCC3)c1ccccc1F 10.4%
Cc1scc(CN2CCN(c3ccccc3F)CC2)c1C -11.1%
O=C(Cn1ncc2c(Cl)cccc21)NCc1cccc(Cl)c1 -1.07%
CCc1ccc(-n2nc(CO)c(C(=O)NCCOC)n2)cc1 -6.39%
CCn1cc(S(=O)(=O)c2cc(C)cc(C)c2)c(=O)c2cc(F)c(N3CCCCC3)cc21 -16.1%
CC(C)(C)C1CCc2c(sc(NC(=O)C3c4ccccc4Oc4ccccc43)c2C(N)=O)C1 (centres undefined) -7.28%
CCC(=O)N1c2ccc(S(=O)(=O)CCC(=O)NCc3ccccc3OC)cc2CC1C (centres undefined) -10.7%
COc1ccc(OC)c(CNC(=O)Nc2cn(CC(C)C)c(=O)c3ccccc23)c1 -32.1%
COc1ccc(Nc2c3c(nc4ccccc24)CCC3)cc1Cl -46.9%
Cc1cccc(NC(=O)Cn2c(=O)n(Cc3ccc4c(c3)OCO4)c(=O)c3oc4ccccc4c32)c1C -13.4%
Cc1ccc(CN(C(=O)COc2ccccc2Cl)c2ccccn2)o1 -14%
Cc1ccc(CNS(=O)(=O)c2ccc(C(=O)N(C)C)s2)cc1 -1.98%
CCOc1ccc(NC(=O)Cn2c(=O)n(Cc3ccc4c(c3)OCO4)c(=O)c3ccc(C(=O)NC4CCCCC4)cc32)cc1 -6.2%
O=C(Nc1ccc(S(=O)(=O)N2CCC(c3nc4ccccc4s3)CC2)cc1)c1ccccc1 -8.54%
Cc1ccc(CNC(=O)Nc2cc(C(=O)NCc3cccc(F)c3)ccc2N2CCCC2)cc1 -16.7%
COC(=O)c1nnn(CC(=O)NC(=O)Nc2ccc(F)cc2)c1C(=O)OC -15.6%
CC(=O)N1CCc2cc(Br)cc(S(=O)(=O)N3CCC(C(=O)Nc4cccc(C)c4C)CC3)c21 -9.4%
COCCSc1nc2c([nH]c3ccccc32)c(=O)n1-c1ccc(OC)c(OC)c1 -11.3%
CCCCn1c(CNC(=O)C23CC4CC(CC(C4)C2)C3)nnc1SCC(=O)Nc1ccc(C)cc1 -32%
CC1CCCCN1Cc1c(O)ccc2c(=O)c(-c3ccccc3Cl)c(C(F)(F)F)oc12 (centres undefined) -9.8%
Cc1ccc(C2CC(=O)Nc3cc4c(cc32)OCCO4)cc1Br (centres undefined) -12.9%
COCCNC(=O)Cn1ccc2cc(S(=O)(=O)N3CCCCCC3)ccc21 -3.2%
Cc1ccc(-c2noc(CCC(=O)N(C)c3ccccc3F)n2)cc1 -23.1%
CCn1c(=O)c2c(nc3n2CCN3c2ccc(OC)cc2)n(C)c1=O 21.9%
CCOC(=O)N1CCC(n2c(=O)[nH]c3cc(Cl)ccc32)CC1 -8.37%
CCOc1ccc(CCNC(=O)c2cc(=O)[nH]c3ccc(S(=O)(=O)N4CCCCC4C)cc23)cc1OCC (centres undefined) -12.9%
Fc1ccccc1-c1nc(N2CCN(c3cccc(Cl)c3)CC2)c2ccccc2n1 -14.9%
CCCc1cc(=O)n2[nH]c(NCc3c(F)cccc3Cl)nc2n1 -20.4%
CCc1nn(CC(=O)NCCc2ccc(SC)cc2)c(=O)c2cc3sccc3n12 13%
Cc1ccc(C)c(N2CCN(C(=O)c3cc(C)nc4c3c(C)nn4-c3ccccc3)CC2)c1 -6.06%
COc1cc(NC(=O)CCN2CCN(CCO)CC2)cc(OC)c1 -14.5%
CCOc1ccc(OCC(=O)Nc2ccc(S(=O)(=O)Nc3cc(C)on3)cc2)cc1 -2.79%
COc1cc(CN(C(=O)COc2ccc(F)cc2)c2ccccn2)cc(OC)c1OC -32.7%
CCOC(=O)COc1ccc(-c2nnn(CC(=O)Nc3ccccc3)n2)cc1 -9.53%
Cn1c(=O)c2sccc2n2c(CCCC(=O)Nc3ccc(Oc4ccccc4)cc3)nnc12 -0.507%
Cc1ccc(NC(=O)c2ccc(=O)n(CC(=O)Nc3ccccc3)n2)cc1 0.294%
COc1ccc(N2CCN(S(=O)(=O)c3ccc4c(c3)C(C(C)C)C(=O)N4)CC2)cc1 (centres undefined) -8.68%
Cn1c(/C(C#N)=C/c2ccccc2Br)nc2ccccc21 -9.7%
CCn1c(CNC(=O)c2ccc(OC)cc2)nnc1SCC(=O)Nc1cc(C)ccc1C -20.8%
Cc1ccc(C)c(NC(=O)C2CCN(S(=O)(=O)c3c(C)noc3/C=C/c3cccs3)CC2)c1 -5.79%
Cc1sc2c(c1C)c(=O)n(CCc1ccccc1)c(=O)n2Cc1ccc(C(C)(C)C)cc1 -8.65%
CCOCN(C(=O)Cn1c(COC)nc2ccccc21)c1c(C)cccc1CC -8.07%
COc1ccc(Cl)cc1NC(=O)CSc1nccn1-c1ccc(Cl)cc1 -13.1%
COc1ccc(S(=O)(=O)N2Cc3ccccc3CC2C(=O)Nc2cc(Cl)ccc2Cl)cc1 (centres undefined) -1.84%
CCc1cccc(NS(=O)(=O)c2ccc3c(c2)CC(C)N3C(=O)C2CC2)c1 (centres undefined) -16.8%
COc1ccccc1C(=O)NCc1nc2cccnc2n1Cc1ccc(F)cc1 -9.19%
Cc1cccc(NC(=O)CSC2=Nc3ccccc3C3=NC(CC(=O)NCc4cccs4)C(=O)N23)c1 (centres undefined) -20.6%
COc1cccc(CNC(=O)C2CCCN(S(=O)(=O)N(C)c3ccc(F)cc3)C2)c1OC (centres undefined) -6.71%
COc1ccc(C(=O)NCCn2cc(SCc3ccc(C(F)(F)F)cc3)c3ccccc32)cc1OC -22.7%
O=C(Nc1ccc(Oc2ccc(Cl)cc2)c(Cl)c1)c1cc(I)cc(I)c1O -10.5%
COCCn1c(C)cc(O)c(C(c2ccccc2OC)N2CCN(c3ccccc3)CC2)c1=O (centres undefined) 0.874%
COc1ccc(CNC(=O)CCCn2nc(C)n3c(cc4sccc43)c2=O)cc1 -5.89%
COc1ccccc1/C=C/c1nc(C#N)c(NC2CCCCC2)o1 -11.9%
COc1ccc(C(=O)c2cn(Cc3ccccc3F)c3cc4c(cc3c2=O)OCCO4)cc1OC -8.11%
O=C(Nc1ccc2c(c1)CCCN2C(=O)c1cccs1)c1ccc(F)c(F)c1 -21.5%
COc1ccc(-c2noc(CC(=O)N(C)c3cccc(C)c3)n2)cc1 -17.5%

From PubChem BioAssay AID1159614 (National Center for Advancing Translational Sciences (NCATS), 2016)
